Source: PMC6944527 (The American Journal of Clinical Nutrition, 2019)
Counter-ions that a name gives are not always drawn. Like-named read-outs stand apart in the source and are kept apart here.

Key:
[1] = target: T1, ThTR-2 (SLC19A3) (Homo sapiens, UniProt Q9BZV2); assay: Clinical relevance ratio; conditions: based on current FDA guidelines; ratio >10
T1 sequence (Q9BZV2 1-496): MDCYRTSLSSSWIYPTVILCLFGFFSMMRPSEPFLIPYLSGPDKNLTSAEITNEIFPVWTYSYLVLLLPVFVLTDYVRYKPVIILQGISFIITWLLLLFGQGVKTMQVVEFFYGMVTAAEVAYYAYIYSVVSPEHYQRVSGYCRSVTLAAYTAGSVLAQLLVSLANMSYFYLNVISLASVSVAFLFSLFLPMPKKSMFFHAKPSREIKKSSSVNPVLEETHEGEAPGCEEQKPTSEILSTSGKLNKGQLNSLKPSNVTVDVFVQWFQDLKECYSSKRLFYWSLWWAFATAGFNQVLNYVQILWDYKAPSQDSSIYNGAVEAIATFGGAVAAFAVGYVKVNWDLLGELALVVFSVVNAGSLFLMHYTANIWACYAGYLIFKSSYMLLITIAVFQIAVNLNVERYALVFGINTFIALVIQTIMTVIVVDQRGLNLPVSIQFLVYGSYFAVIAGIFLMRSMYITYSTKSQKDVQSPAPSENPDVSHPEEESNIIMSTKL

[2] = target: T1, ThTR-2 (SLC19A3)
[3] = target: T1, ThTR-2 (SLC19A3); assay: Radiometric cell uptake primary screen; format: cell-based

With `CN(C)CCC=C1c2ccccc2CCc2ccccc21` [Amitriptyline hydrochloride] the DDI study recommended [1] was “Yes” and the IC50 [2] was 11.3 ± 2.85 µM.
For `Clc1ccc2c(c1)C(N1CCNCC1)=Nc1ccccc1O2` [Amoxapine], the DDI study recommended [1] was “Yes” and the IC50 [2] was 46.6 ± 14.7 µM.
`O=C(O)CC(O)(CC(=O)O)C(=O)O` [Citric acid] was tested, and the “validation of primary screen call by dose response curves” value ([2]; 8-point dose response follow-up of screen hits/nonhits) was “false positive”.
With `O=c1[nH]cnc2c1ncn2[C@H]1CC[C@@H](CO)O1` [Didanosine] the DDI study recommended [1] was “No”.
`Cc1cnc(Nc2ccc(OCCN3CCCC3)cc2)nc1Nc1cccc(S(=O)(=O)NC(C)(C)C)c1` [Fedratinib] was tested, and the DDI study recommended [1] was “Yes”.
In the case of `CN(C)C(=N)N=C(N)N` [Metformin hydrochloride], the DDI study recommended [1] is reported as “Yes”.
For `CC(C)(S)[C@@H](N)C(=O)O` [Penicillamine ethanolamine salt], the DDI study recommended [1] was “Yes” and the IC50 [2] was 857 ± 372 µM.
`CC[C@@H]([C@H](C)O)n1ncn(-c2ccc(N3CCN(c4ccc(OC[C@@H]5CO[C@@](Cn6cncn6)(c6ccc(F)cc6F)C5)cc4)CC3)cc2)c1=O` [Posaconazole] was tested, and the DDI study recommended [1] was “No”.
With `CCOC(=O)[C@H](CCc1ccccc1)N[C@@H](C)C(=O)N1Cc2ccccc2C[C@H]1C(=O)O` [Quinapril] the DDI study recommended [1] was “Yes” and the IC50 [2] was 34 ± 7.36 µM.
In the case of `CN[C@H]1CC[C@@H](c2ccc(Cl)c(Cl)c2)c2ccccc21` [Sertraline hydrochloride], the DDI study recommended [1] is reported as “Yes”.
`CCCc1nc2c(C)cc(-c3nc4ccccc4n3C)cc2n1Cc1ccc(-c2ccccc2C(=O)O)cc1` [Telmisartan] was tested, and the DDI study recommended [1] was “No” and the IC50 ([2]; Table 1, 250 nM thiamine, 5 min uptake, HEK293-ThTR-2) was “Not convergent”.
For `COc1ccc(C[C@H](N)C(=O)N[C@H]2[C@@H](O)[C@H](n3cnc4c(N(C)C)ncnc43)O[C@@H]2CO)cc1` [puromycin], the “inhibition of thiamine uptake compared to control” value (“inhibition … compared to control” below) [3] was no more than 10%.
In the case of `[H]/N=C(/N)N[C@H]1[C@H](O)[C@@H](O)[C@H](O[C@@H]2O[C@@H](C)[C@](O)(C=O)[C@H]2O[C@@H]2O[C@@H](CO)[C@H](O)[C@@H](O)[C@@H]2NC)[C@@H](N/C(N)=N\[H])[C@@H]1O` [streptomycin], the “inhibition … compared to control” value [3] is reported as no more than 10%.
For Penicillin, the “inhibition … compared to control” value [3] was no more than 10%.
